Reference: the RNAGym collection of RNA variant scans (doi:10.7554/elife.90254)
Read counts are not given, so values of variants with three or more changes are uncertain.

B1: LINE1-mini (parent)
chain: GGCAGAGCUCAACACAGCGUGGCAAAGUGGCUGUGGCUAGACUGCC

Variants of: B1
Test: self-cleavage, relative activity (ratio to wild type); higher = more cleavage; in vitro, sequencing; the parent is a self-cleaving ribozyme

Row | Variant | self-cleavage
1 | G5U C13U G33A G35A U38G | 0.05
2 | G5U A6G G35U | 0.1
3 | G5C G29U C45U C46U | 0.14
4 | G5C U9C C10U C31U A39U | 0.04
5 | G5U C23A G33A C37A | 0.04
6 | G5U A11U C13G A26G G27U C31U C42G G44A | 0.01
7 | G5U C18U U20G C31A | 0.01
8 | G5U A16C G30U U32G U34G | 0.02
9 | G5U C10G A16U U32A G35C | 0.01
10 | G5C G27U C31A G36U | 0.01
11 | G5U U28C C45G | 0.04
12 | G5U C31A A41U | 0.07
13 | G5C G17C G30U U32A | 0.03
14 | G5U C10A A25C | 0.06
15 | G5C G21U G36C U43C | 0
16 | G5C G27U U32C | 0.02
17 | G5U U32C C45G | 0.07
18 | A6C A11C U28C C31U | 0.04
19 | G5U G7A C8A C23G G27U U34G | 0.07
20 | G5U G27A U28C | 0.02
21 | G5U C31A G33A U34C | 0.02
22 | G5U C10U G19C C23A C31U G33C | 0.01
23 | G5U C10A G17U C31A G33A C37A | 0.01
24 | G5C G19C G21C A26C | 0

Row | Variant | self-cleavage
25 | G5U C15A G17U U38G | 0.04
26 | G5U C13A G29U U32G G35U | 0.08
27 | G5U A12G G17U C23A C42G | 0.02
28 | G5U C8U C23U A41U U43A | 0.2
29 | G5U C10A C18A A41C C46A | 0.03
30 | G5U C18U G22A A25G U28A C31U G44C | 0.01
31 | G5U G17C C18A C31A G44C | 0
32 | G5C G17U G21U | 0.04
33 | G5U G7U G22C C23U G35C | 0.07
34 | G5U G21A C23U A24U U28A G36U | 0.01
35 | G5C G7U C8U A14G | 0.35
36 | G5U G17A G21U G40U | 0.02
37 | G5U G7A G35U | 0.87
38 | G5U G22U U34C | 0.05
39 | G5C G17A G33U | 0.03
40 | G5U A6G C10A G21U G30A G35C C46U | 0.02
41 | G5C G7C G21A | 0.21
42 | G5C U9A U28A | 0.06
43 | G5U A24U A25G | 0.04
44 | G5C G19U G35A | 0.02
45 | G5U G30C C37U | 0.03
46 | G5U U20C A41U | 0.03
47 | G5U U20C A41G | 0.21
48 | G5C U20G A25U G35A G44U | 0.01

Row | Variant | self-cleavage
49 | G5C G7A C23G | 0.09
50 | G5U A6G G40A | 0.05
51 | G5C G30C G33U G40U | 0.04
52 | G5C G17U U34G U38G | 0.01
53 | G5C U20A G40C | 0.03
54 | G5C G30C G33C | 0.03
55 | G5C U32C A41U C45U | 0.03
56 | G5U G19U C23U U38A | 0.03
57 | G5U C37U U43C | 0.01
58 | G5U C13A U28C A39G C42A | 0.04
59 | G5U G17A A41U C46A | 0.03
60 | G5U A16C C37U A41U | 0.02
61 | G5U C13U G27U C31G G33U G35U U38C C46A | 0.11
62 | G5U C31G U32A | 0.04
63 | G5U U9C C37G | 0.01
64 | G5C G22A G27U G29C C37A A41U | 0.1
65 | G5C G17U G22U C23A C46A | 0.03
66 | G5U G7U C8G A11C U28A C45U | 0.02
67 | G5U G22C C23G | 0.06
68 | G5U G30A G40U | 0.05
69 | G5U A12C C23U | 0.07
70 | G5U A12C G17C U34C | 0.07
71 | G5U C13U C31A G33C A41G | 0.04
72 | G5U U9C G27A | 0

Row | Variant | self-cleavage
73 | G5U A14U G40A C46U | 0.04
74 | G5U G7A A11G U20A G22A | 0.01
75 | A6C A12G A14C G21A | 0.01
76 | G5C U9G G17A U38C G40A | 0.01
77 | G5U C8U C18G | 0.19
78 | G5U U20A C23U U32C | 0.01
79 | G5U C23G G29C U32G | 0
80 | G5C U9G G30U | 0.06
81 | G5U A16G A25G | 0.02
82 | G5U C8A A24G | 0.71
83 | G5C U20C C31G G33A | 0.03
84 | G5U A24U A39U | 0.08
85 | G5U C8G G22A | 0.03
86 | G5C G27U C37U G40A C42U | 0.01
87 | G5U A16U G27A | 0.07
88 | G5U C13G A16C A26G G35A C45G | 0.03
89 | G5U G27U G29U C31A G33A | 0.01
90 | G5U A6U A12G C37U | 0.28
91 | G5U U34A G40U | 0.03
92 | G5U A14C G29C A39G U43C | 0
93 | G5U A11C C13A G29U | 0
94 | G5C G17C U20C A25U G35U | 0.14
95 | G5C G17A C18A G33U | 0.03
96 | A6C A11U G22U G35C | 0.01

Row | Variant | self-cleavage
97 | G5U U9C G29U | 0.08
98 | G5U C13A G30U G40C | 0.04
99 | G5U C10U U20A | 0.06
100 | G5U C15U G19U C23G G35A | 0.03
101 | G5U C10A G27A | 0.01
102 | G5C U9C A11G G21C A41C | 0.01
103 | A6C A12G C18U G22C C31G U34A G36U | 0.02
104 | G5U C13G A14C C18U C31G | 0.03
105 | G5C G17U U20C U38G | 0.02
106 | G5U A14U G17C U43C | 0.04
107 | G5U U20C C45U | 0.02
108 | G5C G30C C46U | 0.02
109 | G5U A25C G27A G35C C42G | 0.02
110 | G5U G7U A11G A12G | 0.01
111 | G5U A6U C37A A41U | 0.1
112 | G5C G7A C15A C23A G33C U38G C46G | 0.05
113 | G5C U20A A24C | 0.03
114 | G5U U9G G17C A24U | 0.07
115 | G5U G7U A26G A41C | 0.04
116 | G5U G36A G44A | 0.01
117 | G5U A11G A25U U32G | 0.02
118 | G5U A12C G29U G30A | 0.01
119 | G5C G7C A26U C45G | 0.11
120 | G5U G35A U38G | 0.01

Row | Variant | self-cleavage
121 | G5U C23A A39U | 0.04
122 | A6C A12C C13G C15U G30C | 0.02
123 | G5C G19U G21U G27A U43A | 0.01
124 | G5U C8U C18U G22U G33C | 0.18
125 | G5U C18G G27U G40A | 0.1
126 | G5U G7U G17A A26G U28A G40A C42G | 0.02
127 | G5U A16U U34G G40U | 0.01
128 | G5U C8G G21U G44U | 0.02
129 | G5U G7A C31A G44C | 0.06
130 | G5U C10U G17C A24C G30U | 0.02
131 | G5U G7U U9A | 0.31
132 | G5U G17C U38A C42A | 0.29
133 | G5U G19A C23A G35A | 0.05
134 | G5U A14G C31G C45A | 0.01
135 | G5U G17C C23A A24U U28A C37U C45A | 0.02
136 | G5U U9A U34C C37U | 0.23
137 | G5U C18G G30A U32C U34A A41C C46U | 0
138 | G5U C10A A24G U28A U43C | 0.04
139 | G5U A24G U34C C46A | 0.02
140 | G5U A14U G35A G36A | 0.15
141 | G5U U9C G21C C37U C45U | 0.01
142 | G5C U9G C23U A25U C31U U43C | 0.03
143 | G5U A6C A11U G40A | 0.03
144 | G5C U9A C18U G22C A26U U32A | 0.01

Row | Variant | self-cleavage
145 | G5U G17C U28C C37U | 0.02
146 | G5U C8G C23U | 0.16
147 | G5U U28G A39C C45G | 0
148 | G5U C10A G40A | 0.02
149 | G5C G33U G40C C46A | 0.04
150 | G5U C15A C31A C46G | 0.02
151 | G5U U20C A26U | 0
152 | G5U A12U G21U C31A C42A | 0
153 | G5C G19A G36U | 0.03
154 | G5U A6U C8U A39U | 0.01
155 | G5U A14U G27U U34G | 0.03
156 | G5U A12C C18U G21A G44C | 0.01
157 | G5U A6G C13U G21C C42U C46A | 0.07
158 | A6C A12G C15A C18G A41G | 0.13
159 | G5U C42G C45A | 0
160 | G5U C23A C46U | 0.11
161 | G5U C23G G35A | 0.07
162 | G5U G17A A24U G36U | 0.03
163 | G5U A14U C18U G27C C46A | 0.01
164 | G5C U9G C10G G19U A39C C42G C45A | 0
165 | G5U C13U C23A U34G | 0.08
166 | G5U U20A G21U G29U | 0.01
167 | G5U A11U C13U A26U | 0.05
